Some of these densities may be calculated back from excess volumes.
Assay: xn = mol fraction of the nth substance listed
Conditions: 101 kPa

COC(=O)OC + CCCCCCCC[N+](C)(CCCCCCCC)CCCCCCCC.[Cl-]
x1 = 1
Conditions | mass density [kg/m3]
303.15 K | 1056.7
308.15 K | 1043.4

CCCCCCCC[N+](C)(CCCCCCCC)CCCCCCCC.[Cl-] + COC(=O)OC
mass density [kg/m3]
Conditions | x2 = 0 | x2 = 0.35 | x2 = 0.55 | x2 = 0.67 | x2 = 0.76 | x2 = 0.83 | x2 = 0.88 | x2 = 0.92 | x2 = 0.95 | x2 = 0.98
298.15 K | – | 897 | 907 | – | 944.4 | 956.8 | – | 997.5 | 1019.9 | 1040
303.15 K | 884 | 894 | – | 916 | 939.7 | 953.3 | 970.3 | 994.6 | 1014.6 | 1033.4
308.15 K | 880 | 891 | 900 | 913 | – | 950.3 | 967.4 | 991.6 | – | –
313.15 K | 877 | 888 | – | 910 | 933.8 | 946.8 | 963.2 | – | 1002.2 | –
318.15 K | 874 | 885 | 896 | 906 | 930 | 943 | 960 | 986 | 996 | 1016
